From PubChem BioAssay AID2060601 (Molecular Pharmacology Branch, DTP, NCI, 2025) come the findings set out here.

A number of entries come with more than one value. They are shown here; other results are not. The source may hold further records. Values that stand side by side repeat one measurement (runs, samples, wells, individuals or studies).

For this experiment, the system named is 874868-142-R-J2-PDC complex spheroids, growth % test/control. In words: Anticancer human tumor 874868-142-R-J2-PDC patient-derived head and neck squamous carcinoma cell line growth inhibition [CLK]. An excerpt: A high-throughput screen of multi-cell type tumor spheroids was designed to identify active combinations of […] and targeted small molecules. Complex spheroids include a stromal component modeled by human endothelial cells (HUVEC) and fibroblasts modeled by human mesenchymal stem cells (MSCs). The concentration ranges selected for each drug and investigational agent were based upon clinically achievable concentrations if the clinical Cmax of the agent was known.
Compounds. The drugs and investigational agents: cirtuvivint (SM08502; NSC835563), CC-671 (NSC850746), vemurafenib (NSC761431), tapotoclax (NSC804041), sotorasib (NSC818433), adagrasib (NSC831453), MRTX-1133 (NSC836407), BAY2416964 (NSC825713), copanlisib (NSC816437), inavolisib (NSC800729), abemaciclib (NSC768073), osimertinib (NSC779217), entinostat (NSC756642), eltanexor (KPT-8602, NSC794443), venetoclax (NSC766270), ceralasertib (NSC777638), bortezomib (NSC756655), olaparib (NSC753686), talazoparib (NSC767125), alisertib (NSC759677), peposertib (NSC802822), gemcitabine (NSC613327), 5-fluorouracil (NSC19893), SN-38 (NSC673596), oxaliplatin (NSC266046), paclitaxel (NSC125973), and doxorubicin (NSC123127), were obtained from the National Cancer Institute (NCI) Developmental Therapeutics Program Chemical Repository. […] If the clinical Cmax for an agent had not been determined, the highest concentration tested was 10 microM. […]
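Also: spheroids exposed to the compounds for 7 days.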
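For viability, T/C in this document: 100% = DMSO vehicle control viability.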

For the molecule `CNC(=O)c1ccc(Nc2nc(OC3CCCC3)c3c(-c4ccc5nc(C)oc5c4)c[nH]c3n2)c(OC)c1`, the viability, T/C (as a rule, the result in the treated group divided by that in the control group, in per cent) (compound alone 0.0316 µM, stronger effect = lower value) is 97.4, 95.9, 86.5, 82.7, 117, 101, 107, 105, 90.5, 95.6, 95%. Besides, the IC50 (usually the concentration needed to halve the response being measured) (compound alone, run of 09/19/2023) was 658 nM, 751 nM, 913 nM, 720 nM, 791 nM, 974 nM, 767 nM, 1.68 µM, 980 nM, 569 nM, 391 nM.
